Results from PubChem BioAssay (NCATS).
Some of the results follow. Further columns of the screen follow, without active or inactive calls. The list favours compounds with an active or inconclusive main result. Potencies come from curve fits of mixed quality, noted in brackets.

Molecular target: Histamine N-methyltransferase (Homo sapiens) (UniProt P50135)
Test: Confirmatory Screen for Target Class Profiling of Small Molecule Inhibitors of Methyltransferases (AID 1745852);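 also: inhibitor potency for blocking SAH production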
Settings: MTase-Glo luminescence, SAH detection, recombinant enzyme; measured here: HNMT inhibition potency
Tags tell the direction and shape of the fitted curve.

Chain of UniProt P50135 (P50135 whole entry, looked up): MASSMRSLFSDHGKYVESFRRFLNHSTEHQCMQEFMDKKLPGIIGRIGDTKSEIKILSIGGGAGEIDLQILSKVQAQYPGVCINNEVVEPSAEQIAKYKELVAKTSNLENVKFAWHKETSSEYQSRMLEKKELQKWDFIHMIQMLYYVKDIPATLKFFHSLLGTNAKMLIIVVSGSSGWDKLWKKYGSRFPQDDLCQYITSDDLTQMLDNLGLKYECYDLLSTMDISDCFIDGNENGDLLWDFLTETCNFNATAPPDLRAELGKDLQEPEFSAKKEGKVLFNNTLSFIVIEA

SMILES | IC50
O=C(N[C@H](C1CCNCC1)C1CC(O)C1)c1ccc2nccnc2c1 (some centres not stated) | 21.5 µM [falling, partial curve]
CN(C)c1nc2c(c(N3C[C@@H](CN4CCCC4)[C@@H](CO)C3)n1)CCCC2 | 4.29 µM [falling, partial curve]
Cc1cnc(C2CCC2)n1C1CCN(C(=O)CCC2CCCC2)CC1 | 15.2 µM [falling, partial curve]
O=C(Nc1ccc2c(N3CCCC3)ncnc2c1)c1cc(F)ccc1Cl | 2.15 µM [falling, full curve]
CC1CCN(CCCNC(=O)CCc2nnc3n(Cc4ccc(Cl)cc4)c(=O)c4ccccc4n23)CC1 | 5.41 µM [falling, full curve]
COc1cc2c(NC3CCN(C4CCCCC4)CC3)nc(N3CCCN(C(C)C)CC3)nc2cc1OCCCN1CCCCC1 | 19.3 µM [falling, partial curve]
Cn1c(COc2cccc(CN3CCCC3)c2Cl)nnc1C1CC(N)C1 (configuration not stated) | 12.1 µM [falling, full curve]
O=C(CCCc1nnc2n3nc(-c4ccccc4)nc3c3ccccc3n12)NCCCN1CCCCC1 | 4.82 µM [falling, full curve]
O=C(CCc1nnc2n(CCc3ccccc3)c(=O)c3ccccc3n12)NCCCN1CCCCC1 | 7.64 µM [falling, partial curve]
O=C(NCCCN1CCc2ccccc2C1)C1CCc2ncc(-c3ccc(F)cc3)n2C1 (configuration not stated) | 21.5 µM [falling, partial curve]
CCN(CC)CCNC(=O)CCc1nnc2n(Cc3ccccc3Cl)c(=O)c3ccccc3n12 | 21.5 µM [falling, partial curve]
Cc1ccc(Cn2c(=O)c3ccccc3n3c(CCC(=O)N4CCC(N5CCCCC5)CC4)nnc23)cc1 | 4.82 µM [falling, full curve]
